Binding data for six substances are collected here from publication PMC5663884, “Compositional and expression analyses of the glideosome during the Plasmodium life cycle reveal an additional myosin light chain required for maximum motility” (The Journal of Biological Chemistry, 2017).

Sequences of proteins named here, by UniProt entry; tags and fusion partners are left off.
UniProt Q8I5I8: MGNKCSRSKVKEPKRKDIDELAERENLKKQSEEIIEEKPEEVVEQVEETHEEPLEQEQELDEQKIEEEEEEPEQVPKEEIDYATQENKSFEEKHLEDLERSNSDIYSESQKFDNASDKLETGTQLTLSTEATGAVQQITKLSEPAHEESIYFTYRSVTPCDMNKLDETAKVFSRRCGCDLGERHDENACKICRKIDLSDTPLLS
UniProt Q8I4W8: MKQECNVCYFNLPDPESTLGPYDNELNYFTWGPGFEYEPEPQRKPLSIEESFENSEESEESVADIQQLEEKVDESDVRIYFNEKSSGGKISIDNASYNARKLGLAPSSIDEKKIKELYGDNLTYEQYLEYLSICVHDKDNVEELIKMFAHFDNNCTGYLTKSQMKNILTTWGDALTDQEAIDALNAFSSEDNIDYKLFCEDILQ
UniProt Q8IJM4: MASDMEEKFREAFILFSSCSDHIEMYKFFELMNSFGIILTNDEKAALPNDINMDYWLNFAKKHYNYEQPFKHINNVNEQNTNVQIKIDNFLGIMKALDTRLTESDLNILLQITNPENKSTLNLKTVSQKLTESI

Test [1] has as its target P. falciparum MyoA-GFP (myosin A tagged at its C terminus with GFP, expressed from the endogenous locus) (P. falciparum) (UniProt Q8IDR3). The test is described as follows: co-IP.
Test [2] has as its target P. falciparum GAP45 tagged internally with GFP (P. falciparum) (UniProt Q8I5I8). Put plainly: co-IP.
For test [3], the target named is T1, P. falciparum MyoB-GFP (P. falciparum) (UniProt Q8I465).
T1 sequence: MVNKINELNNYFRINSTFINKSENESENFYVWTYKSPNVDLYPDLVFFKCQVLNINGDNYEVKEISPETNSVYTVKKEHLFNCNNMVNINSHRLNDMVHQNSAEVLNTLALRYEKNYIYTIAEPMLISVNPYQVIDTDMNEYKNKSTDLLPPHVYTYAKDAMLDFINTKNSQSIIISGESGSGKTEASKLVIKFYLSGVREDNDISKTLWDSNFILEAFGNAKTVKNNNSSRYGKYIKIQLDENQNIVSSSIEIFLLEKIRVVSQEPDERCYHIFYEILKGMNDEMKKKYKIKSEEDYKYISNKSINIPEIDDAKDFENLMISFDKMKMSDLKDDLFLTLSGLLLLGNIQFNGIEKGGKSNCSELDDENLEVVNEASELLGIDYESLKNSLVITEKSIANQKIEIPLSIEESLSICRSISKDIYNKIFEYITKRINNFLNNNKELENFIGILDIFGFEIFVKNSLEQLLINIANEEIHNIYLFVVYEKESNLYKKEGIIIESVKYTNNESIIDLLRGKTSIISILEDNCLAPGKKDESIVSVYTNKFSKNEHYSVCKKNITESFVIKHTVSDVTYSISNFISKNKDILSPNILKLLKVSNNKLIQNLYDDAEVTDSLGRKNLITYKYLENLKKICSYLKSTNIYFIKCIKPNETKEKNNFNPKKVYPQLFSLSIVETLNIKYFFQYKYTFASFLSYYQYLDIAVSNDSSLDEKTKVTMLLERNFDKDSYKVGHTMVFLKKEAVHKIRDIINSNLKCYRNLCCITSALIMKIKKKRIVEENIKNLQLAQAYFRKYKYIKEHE
Put plainly: co-IP.

Test [4] concerns the target Myosin light chain 1, myosin A tail domain–interacting protein (MTIP), endogenous (P. falciparum (endogenous in schizonts and merozoites)) (UniProt Q8I4W8). The test is described as follows: co-IP; anti-MTIP antibodies on lysates of 3D7 schizonts or merozoites; Western blotting with PfELC-specific antibodies; preimmune antibody as control.
Test [5] addresses Biotinylated PfMyoA neck peptide 770–787 (P. falciparum) (UniProt Q8IDR3). Put plainly: BLI; both purified.
In test [6] the target is Recombinant full-length PfMyoA with N-terminal StrepTagII and GFP (Sf21) (P. falciparum) (UniProt Q8IDR3). Put plainly: co-purification of co-expressed proteins (Strep-Tactin affinity, then SEC).

These are yes or no findings as the source states them, for the method shown. For some assays here: In cells and extracts the contact can be indirect. Some entries that bind do so weakly or less than the wild type. For some assays here: Tags and fused reporters may be left off the sequences shown.

Turning to “Glideosome-associated protein 45 (GAP45), endogenous (from UniProt Q8I5I8 1-204)”, the binding result in test [1] is reported as “binds”.

As to “Myosin light chain 1, myosin A tail domain–interacting protein (MTIP), endogenous (from UniProt Q8I4W8 1-204)”, in test [2], the binding entry is “binds”.

Consider “P. falciparum essential light chain (PfELC), endogenous (from UniProt Q8IJM4 1-134)”, for which the binding entry was “binds” in test [1], “no binding” in test [3] and “binds” in test [4].

Regarding “P. falciparum myosin A (MyoA), untagged, endogenous (from UniProt Q8IDR3 1-818)”, in test [2], the binding entry was “binds”.

Consider “Recombinant His-tagged PfELC (E. coli) (from UniProt Q8IJM4 1-134)”, for which the binding result in test [5] is reported as “no binding (tested: 0.04–5 μM PfELC)”.

With “Recombinant PfELC with N-terminal hexahistidine tag (Sf21) (from UniProt Q8IJM4 1-134)”, the binding entry in test [6] is listed as “binds”.
